Results published in publication PMC7307925, “Human Serum Albumin Binding in a Vial: A Novel UV-pH Titration Method To Assist Drug Design” (Journal of Medicinal Chemistry, 2020).
Values joined by “and” are separate entries in the source; they are usually repeats but may differ in a detail not shown here. Equal entries are not always repeated. Where two headings read alike, the source gives them in different places.

How the values were obtained:
[1] = molecular target: human serum albumin (HSA) (Homo sapiens, UniProt P02768); assay: HSA binding by biomimetic chromatography on immobilized HSA column (Chiralpak-HSA)
[2] = test system: human serum albumin (HSA); conditions: 49 (SI ref 1,2); cited from earlier work

human serum albumin (HSA), sequence (P02768 25-609): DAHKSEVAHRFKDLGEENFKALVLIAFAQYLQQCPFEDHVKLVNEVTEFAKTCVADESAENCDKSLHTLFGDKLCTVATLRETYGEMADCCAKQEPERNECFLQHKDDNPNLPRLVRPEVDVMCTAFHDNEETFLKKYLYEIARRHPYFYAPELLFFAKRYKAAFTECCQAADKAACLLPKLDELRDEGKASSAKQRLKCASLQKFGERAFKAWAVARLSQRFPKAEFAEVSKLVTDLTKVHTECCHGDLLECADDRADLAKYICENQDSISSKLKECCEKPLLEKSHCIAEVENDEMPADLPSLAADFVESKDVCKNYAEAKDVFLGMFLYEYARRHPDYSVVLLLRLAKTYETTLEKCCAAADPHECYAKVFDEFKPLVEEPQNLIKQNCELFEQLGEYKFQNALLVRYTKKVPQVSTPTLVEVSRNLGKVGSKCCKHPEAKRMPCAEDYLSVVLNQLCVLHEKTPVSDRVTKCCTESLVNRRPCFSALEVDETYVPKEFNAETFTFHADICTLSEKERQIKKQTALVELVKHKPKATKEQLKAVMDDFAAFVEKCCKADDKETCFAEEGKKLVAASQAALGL

Row | SMILES | HSA% (HPLC), experimental data [1] | HSA% (HPLC), literature data [2] [%] | HSA% (HPLC), experimental data ([1]; listed as oxazepam)
1 | CC(C)NCC(O)COc1ccc(CC(N)=O)cc1 (stereo not drawn) [Atenolol] | 14.3% | – | –
2 | CC1=C(C(=O)O)N2C(=O)[C@@H](NC(=O)[C@H](N)c3ccccc3)[C@H]2SC1 [Cephalexin] | – | 14 | –
3 | CN(C)CCOC(c1ccccc1)c1ccccc1 [Diphenhydramine] | 55% | 55.4 | –
4 | NS(=O)(=O)c1cc(C(=O)O)c(NCc2ccco2)cc1Cl [Furosemide] | 99.4% | 63.8 | –
5 | COc1ccc2cc([C@H](C)C(=O)O)ccc2c1 [Naproxen] | 99.1% | 99 | –
6 | O=C1Nc2ccc(Cl)cc2C(c2ccccc2)=NC1O (stereo not drawn) [Oxazepam] | 79.9% and 89.5% | 94.2 | 79.9% and 89.5%
7 | Cc1cc(NS(=O)(=O)c2ccc(N)cc2)no1 [Sulfamethoxazole] | 86.2% | – | –
